System: Vcap cells (androgen receptor (+) prostate cancer cells)
Experiment: CTG cell proliferation assay (CellTiter-Glo), compounds alone or in combination
[1] = 10 μM tested compound in combination with 1 μM B001
[2] = Homo sapiens, VCaP, 120 h, read-out: Survival rate of Vcap cells

SMILES | Survival rate of Vcap cells (1 μM tested compound in combination with 1 μM B001) [%] | Survival rate of Vcap cells [1] [%] | viability at 1 µM [2] [%] | viability at 10 µM [2] [%]
CC1(C)C(=O)N(c2ccc(C#N)c(C(F)(F)F)c2F)C(=S)N1c1ccc(CCCC#N)c(F)c1 [AR2-4] | 53.165 | 32.946 |  | 
CC1(C)C(=O)N(c2ccc(C#N)c(C(F)(F)F)c2)C(=S)N1c1ccc(OC[C@@H](O)CO)cc1 [AR3-3] |  | 45.721 | 83.5 | 68.7
